# Data taken from ChEMBL document CHEMBL1961873, “Compounds: GSK PKIS; Assays: Nanosyn kinase panel” (2012).
# For part of these data: Shown are results outside the selection of strong results, which stands elsewhere. The list shows a part of the results, in another mix than the full data.
# Key:
# [1] = molecular target: Tyrosine-protein kinase Fer (Homo sapiens) (UniProt P16591); details: at 1 µM
# [2] = molecular target: Tyrosine-protein kinase Fes/Fps (Homo sapiens) (UniProt P07332); details: at 0.1 µM
# UniProt P07332, sequence (P07332 whole entry): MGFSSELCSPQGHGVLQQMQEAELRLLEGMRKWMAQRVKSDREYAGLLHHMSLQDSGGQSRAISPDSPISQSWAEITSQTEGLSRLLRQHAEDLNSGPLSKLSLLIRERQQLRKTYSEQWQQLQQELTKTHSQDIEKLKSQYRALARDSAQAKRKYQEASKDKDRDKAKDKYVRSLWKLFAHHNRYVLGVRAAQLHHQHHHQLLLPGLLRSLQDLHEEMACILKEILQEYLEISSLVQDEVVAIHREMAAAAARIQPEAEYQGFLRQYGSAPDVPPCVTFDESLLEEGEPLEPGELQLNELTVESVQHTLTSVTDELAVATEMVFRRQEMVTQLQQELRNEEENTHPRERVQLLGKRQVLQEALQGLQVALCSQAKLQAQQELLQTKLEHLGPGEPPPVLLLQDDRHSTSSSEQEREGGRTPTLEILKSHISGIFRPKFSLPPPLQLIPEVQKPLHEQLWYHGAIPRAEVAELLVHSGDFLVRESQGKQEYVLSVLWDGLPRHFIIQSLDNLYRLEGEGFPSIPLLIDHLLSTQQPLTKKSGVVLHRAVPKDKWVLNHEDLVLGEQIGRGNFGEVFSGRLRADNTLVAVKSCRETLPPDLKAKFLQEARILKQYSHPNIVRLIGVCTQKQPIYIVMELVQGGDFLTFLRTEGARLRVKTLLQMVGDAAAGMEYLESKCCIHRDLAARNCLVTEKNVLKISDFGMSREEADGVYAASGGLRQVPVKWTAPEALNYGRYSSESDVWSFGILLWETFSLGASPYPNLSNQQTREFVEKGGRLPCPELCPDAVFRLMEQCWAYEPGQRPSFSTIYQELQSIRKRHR
# [3] = molecular target: Tyrosine-protein kinase Fes/Fps (Homo sapiens) (UniProt P07332); details: at 1 µM
# [4] = molecular target: Fibroblast growth factor receptor 1 (Homo sapiens) (UniProt P11362); details: at 0.1 µM
# UniProt P11362, sequence (P11362 whole entry, looked up): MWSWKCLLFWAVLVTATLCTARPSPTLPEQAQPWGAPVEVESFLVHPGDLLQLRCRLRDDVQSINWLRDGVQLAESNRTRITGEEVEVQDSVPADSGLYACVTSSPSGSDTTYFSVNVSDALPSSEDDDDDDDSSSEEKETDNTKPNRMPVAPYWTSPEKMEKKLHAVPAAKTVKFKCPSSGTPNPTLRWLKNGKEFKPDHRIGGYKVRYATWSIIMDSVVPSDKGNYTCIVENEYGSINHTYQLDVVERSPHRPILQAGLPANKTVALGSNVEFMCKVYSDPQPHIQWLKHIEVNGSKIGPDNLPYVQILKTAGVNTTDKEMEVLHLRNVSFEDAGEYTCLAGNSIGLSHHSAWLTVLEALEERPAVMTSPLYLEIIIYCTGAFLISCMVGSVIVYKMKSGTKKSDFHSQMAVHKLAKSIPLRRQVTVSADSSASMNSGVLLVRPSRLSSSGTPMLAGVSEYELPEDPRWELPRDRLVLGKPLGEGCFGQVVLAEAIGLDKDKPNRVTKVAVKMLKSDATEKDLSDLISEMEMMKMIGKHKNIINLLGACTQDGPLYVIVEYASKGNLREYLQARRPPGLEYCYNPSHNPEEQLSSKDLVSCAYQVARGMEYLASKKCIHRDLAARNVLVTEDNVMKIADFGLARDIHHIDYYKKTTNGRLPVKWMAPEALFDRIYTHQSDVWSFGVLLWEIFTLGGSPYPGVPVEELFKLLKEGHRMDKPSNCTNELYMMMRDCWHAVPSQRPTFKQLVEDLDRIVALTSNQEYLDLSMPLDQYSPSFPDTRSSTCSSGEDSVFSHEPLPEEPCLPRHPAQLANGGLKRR
# [5] = molecular target: Fibroblast growth factor receptor 1 (Homo sapiens) (UniProt P11362); details: at 1 µM
# [6] = molecular target: Fibroblast growth factor receptor 2 (Homo sapiens) (UniProt P21802); details: at 0.1 µM
# UniProt P21802, sequence (P21802 whole entry, looked up): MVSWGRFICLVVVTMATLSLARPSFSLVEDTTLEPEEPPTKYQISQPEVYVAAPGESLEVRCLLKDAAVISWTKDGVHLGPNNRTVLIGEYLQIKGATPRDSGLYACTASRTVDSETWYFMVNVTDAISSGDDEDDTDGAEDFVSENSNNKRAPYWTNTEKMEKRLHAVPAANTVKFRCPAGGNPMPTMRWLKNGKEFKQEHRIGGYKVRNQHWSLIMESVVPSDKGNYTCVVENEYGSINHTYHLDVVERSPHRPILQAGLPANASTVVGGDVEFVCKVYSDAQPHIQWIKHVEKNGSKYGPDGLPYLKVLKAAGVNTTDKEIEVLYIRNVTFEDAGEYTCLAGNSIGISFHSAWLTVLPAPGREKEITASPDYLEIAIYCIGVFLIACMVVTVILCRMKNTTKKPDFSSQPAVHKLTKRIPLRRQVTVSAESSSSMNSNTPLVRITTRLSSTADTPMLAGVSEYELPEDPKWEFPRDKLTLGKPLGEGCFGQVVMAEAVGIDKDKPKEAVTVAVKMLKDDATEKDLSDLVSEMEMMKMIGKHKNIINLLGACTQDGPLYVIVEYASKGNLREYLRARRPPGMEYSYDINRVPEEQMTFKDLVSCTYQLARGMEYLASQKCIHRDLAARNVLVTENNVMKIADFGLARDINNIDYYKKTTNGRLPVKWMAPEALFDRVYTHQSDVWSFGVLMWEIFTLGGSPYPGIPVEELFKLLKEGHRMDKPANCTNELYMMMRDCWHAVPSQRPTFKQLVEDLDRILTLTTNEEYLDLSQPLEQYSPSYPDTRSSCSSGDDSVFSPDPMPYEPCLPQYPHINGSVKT
# [7] = molecular target: Fibroblast growth factor receptor 2 (Homo sapiens) (UniProt P21802); details: at 1 µM
# [8] = molecular target: Fibroblast growth factor receptor 3 (Homo sapiens) (UniProt P22607); details: at 0.1 µM
# UniProt P22607, sequence (P22607 whole entry, looked up): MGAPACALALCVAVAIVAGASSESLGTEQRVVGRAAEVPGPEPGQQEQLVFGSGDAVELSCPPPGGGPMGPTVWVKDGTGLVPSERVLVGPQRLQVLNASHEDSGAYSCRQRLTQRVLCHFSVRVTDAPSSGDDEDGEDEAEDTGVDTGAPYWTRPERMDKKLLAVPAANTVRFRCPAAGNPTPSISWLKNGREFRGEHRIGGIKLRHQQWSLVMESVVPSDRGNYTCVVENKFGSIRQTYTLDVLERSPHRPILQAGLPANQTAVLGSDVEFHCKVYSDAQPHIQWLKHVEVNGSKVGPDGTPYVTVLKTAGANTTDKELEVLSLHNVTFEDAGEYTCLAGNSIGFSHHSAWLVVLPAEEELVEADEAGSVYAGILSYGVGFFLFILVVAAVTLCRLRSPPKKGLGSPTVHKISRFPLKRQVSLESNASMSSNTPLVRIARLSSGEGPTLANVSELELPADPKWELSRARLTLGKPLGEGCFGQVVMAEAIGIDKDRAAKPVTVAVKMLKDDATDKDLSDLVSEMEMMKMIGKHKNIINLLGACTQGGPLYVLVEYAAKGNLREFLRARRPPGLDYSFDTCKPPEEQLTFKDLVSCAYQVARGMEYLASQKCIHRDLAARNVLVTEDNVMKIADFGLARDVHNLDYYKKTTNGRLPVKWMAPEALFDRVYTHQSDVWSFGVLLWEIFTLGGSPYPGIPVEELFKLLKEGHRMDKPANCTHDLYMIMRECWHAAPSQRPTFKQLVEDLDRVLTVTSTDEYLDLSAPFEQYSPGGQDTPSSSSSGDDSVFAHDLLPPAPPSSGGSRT
# [9] = molecular target: Fibroblast growth factor receptor 3 (Homo sapiens) (UniProt P22607); details: at 1 µM
# [10] = molecular target: Fibroblast growth factor receptor 4 (Homo sapiens) (UniProt P22455); details: at 0.1 µM;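 further: values are mean percent inhibition of FGFR4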
# UniProt P22455, sequence (P22455 whole entry, looked up): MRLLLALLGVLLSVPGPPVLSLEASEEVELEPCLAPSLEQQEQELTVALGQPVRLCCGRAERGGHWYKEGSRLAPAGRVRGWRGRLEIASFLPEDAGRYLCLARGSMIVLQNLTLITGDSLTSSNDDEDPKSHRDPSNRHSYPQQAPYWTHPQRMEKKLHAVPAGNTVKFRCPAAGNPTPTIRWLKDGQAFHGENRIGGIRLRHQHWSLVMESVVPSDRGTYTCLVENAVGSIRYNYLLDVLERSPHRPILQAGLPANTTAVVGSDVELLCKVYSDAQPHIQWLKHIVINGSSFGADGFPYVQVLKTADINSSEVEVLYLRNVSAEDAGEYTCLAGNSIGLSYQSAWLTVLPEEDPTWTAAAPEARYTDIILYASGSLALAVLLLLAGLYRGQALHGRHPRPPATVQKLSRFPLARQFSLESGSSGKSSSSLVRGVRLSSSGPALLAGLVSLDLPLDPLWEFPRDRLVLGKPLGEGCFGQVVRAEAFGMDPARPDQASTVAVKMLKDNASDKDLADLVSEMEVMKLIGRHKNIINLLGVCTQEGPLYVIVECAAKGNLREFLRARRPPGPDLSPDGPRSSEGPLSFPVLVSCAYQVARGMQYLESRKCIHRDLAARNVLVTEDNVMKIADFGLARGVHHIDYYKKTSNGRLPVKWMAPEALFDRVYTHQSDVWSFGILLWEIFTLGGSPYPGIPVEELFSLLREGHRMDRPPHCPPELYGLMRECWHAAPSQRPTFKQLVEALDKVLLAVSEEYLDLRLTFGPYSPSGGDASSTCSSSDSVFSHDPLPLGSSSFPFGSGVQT
# UniProt P16591, sequence (P16591 whole entry, looked up): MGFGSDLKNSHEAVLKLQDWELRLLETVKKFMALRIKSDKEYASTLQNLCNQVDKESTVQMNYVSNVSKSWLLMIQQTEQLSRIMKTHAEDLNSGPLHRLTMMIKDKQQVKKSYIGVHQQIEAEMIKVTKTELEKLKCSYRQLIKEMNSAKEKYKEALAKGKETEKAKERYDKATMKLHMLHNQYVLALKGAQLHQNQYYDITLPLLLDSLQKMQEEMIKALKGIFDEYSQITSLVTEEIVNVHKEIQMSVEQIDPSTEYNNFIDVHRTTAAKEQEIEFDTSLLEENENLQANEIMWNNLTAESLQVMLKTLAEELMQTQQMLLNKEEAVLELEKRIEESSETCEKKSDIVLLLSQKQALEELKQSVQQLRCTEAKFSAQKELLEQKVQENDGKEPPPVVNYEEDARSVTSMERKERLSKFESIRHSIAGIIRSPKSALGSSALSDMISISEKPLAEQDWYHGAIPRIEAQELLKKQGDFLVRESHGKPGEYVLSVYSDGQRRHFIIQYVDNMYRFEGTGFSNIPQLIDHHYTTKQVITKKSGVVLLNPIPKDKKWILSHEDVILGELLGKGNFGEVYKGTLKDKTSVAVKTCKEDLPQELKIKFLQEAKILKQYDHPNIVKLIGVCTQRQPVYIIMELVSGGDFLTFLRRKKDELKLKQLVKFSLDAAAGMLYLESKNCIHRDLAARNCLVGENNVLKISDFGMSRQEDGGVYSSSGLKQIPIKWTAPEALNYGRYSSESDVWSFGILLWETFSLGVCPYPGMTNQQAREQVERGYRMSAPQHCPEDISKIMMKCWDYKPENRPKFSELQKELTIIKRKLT
SMILES,inhibition [1],inhibition [2],inhibition [3],inhibition [4],inhibition [5],inhibition [6],inhibition [7],inhibition [8],inhibition [9],inhibition [10]
Cc1cccc(Oc2nccc(-c3c(-c4ccc(F)cc4)ncn3C3CCNCC3)n2)c1C,4.21%,3.78%,3.26%,2.25%,10.6%,5.52%,7.26%,5.67%,6.68%,0.9%
COc1ccccc1Oc1nccc(-c2c(-c3ccc(F)cc3)ncn2C2CCNCC2)n1,11.2%,4%,4.21%,3.48%,6.26%,6.73%,8.24%,6.4%,8.02%,0.42%
COc1ccccc1C1=C(Nc2ccccc2)C(=O)NC1=O,10.2%,2.63%,3.59%,3.4%,2.56%,1.53%,6.4%,5.26%,3.74%,0.3%
NC(=O)CCc1ccccc1Oc1nccc(-c2c(-c3ccc(F)cc3)ncn2C2CCNCC2)n1,0.82%,-1.56%,-1.5%,-2.59%,-2.27%,1.39%,0.01%,-1.2%,-1.28%,1.08%
CS(=O)(=O)c1ccc(Oc2nccc(-c3c(-c4ccc(F)cc4)ncn3C3CCNCC3)n2)cc1,4.41%,4.3%,1.79%,-0.91%,3.98%,1.58%,3.83%,2.42%,2.73%,1.19%
Fc1ccc(-c2ncn(C3CCNCC3)c2-c2ccnc(Oc3cccc(C(F)(F)F)c3)n2)cc1,3.43%,5.02%,4.61%,6.49%,5.84%,7.58%,11%,6.99%,7.98%,-1.37%
CC(C)(C)c1ccc(Oc2nccc(-c3c(-c4ccc(F)cc4)ncn3C3CCNCC3)n2)cc1,0.49%,3.94%,3.31%,-0.81%,2.92%,2.22%,3.69%,3.32%,2.86%,-1.97%
Fc1ccc(-c2ncn(C3CCNCC3)c2-c2ccnc(Oc3ccc(Cl)cc3)n2)cc1,9.05%,-0.01%,0.02%,-5.16%,-0.19%,0.39%,-0.95%,0.88%,-0.04%,4.39%
O=C1NC(=O)C(c2cccc([N+](=O)[O-])c2)=C1Nc1cc(Cl)c(O)c(Cl)c1,0.45%,0.77%,0.99%,–,7.05%,0.92%,21.7%,1.22%,14.5%,3.72%
O=C(O)c1ccc(Oc2nccc(-c3c(-c4ccc(F)cc4)ncn3C3CCNCC3)n2)cc1,1.31%,3.23%,4.78%,3.77%,6.13%,9%,8.13%,10.4%,8.63%,3.16%
O=C1NC(=O)C(c2ccccc2)=C1Nc1ccccc1,6.31%,3.21%,4.15%,4.96%,8.84%,10.4%,8.86%,7.7%,9.46%,-1.29%
Fc1ccc(-c2ncn(C3CCNCC3)c2-c2ccnc(Oc3cccc(F)c3)n2)cc1,12.8%,3.78%,3.56%,5.54%,11%,10.8%,12.4%,13.8%,14.8%,–
Fc1ccc(Oc2nccc(-c3c(-c4ccc(F)cc4)ncn3C3CCNCC3)n2)cc1,3.13%,2.44%,2.52%,3.29%,-2.94%,5.52%,0.13%,4.38%,5.03%,-0.31%
O=C1NC(=O)C(c2ccccc2Cl)=C1Nc1cc(Cl)c(O)c(Cl)c1,4.57%,2.25%,3.17%,-0.23%,4.13%,4.56%,7.38%,5.47%,7.1%,0.3%
